# Hit rate of the full screen: of about 310,000 compounds, about 18,000 (5.8%) were called active. Inconclusive results, whose numbers are uncertain, are shown with a selection of clear calls. The call rests on the fitted dose curve; in most records, active means well fitted inhibition curve with a large enough effect; inconclusive means small, poorly fitted or top-dose-only effect, or another doubt; inactive means no such curve, though single readings can be large or run the other way. No potency is given beside an inconclusive call; the fits are too rough.
# Assay: Primary qHTS for delayed death inhibitors of the malarial parasite plastid, 48 hour incubation
# Conditions: P. falciparum luciferase growth in erythrocytes; series mostly up to 28.7 µM
# In short: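 Luciferase-expressing P. falciparum in infected erythrocytes (2% hematocrit, 0.1% parasitemia final) in RPMI 1640/0.5% Albumax were exposed to compound for 48 hours at 37 C, 5% CO2; growth read as luminescence.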
# Potency means the concentration at half of the fitted maximal effect; tags describe the fitted curve by direction and shape.
row,Compound,Potency
1,CCC12CN3CC(CC)(CN(C1)C3c1ccc(OC(C)C)cc1)C2=O (centres undefined),"inconclusive [inhibitor, single point]"
2,CCCOc1cccc(C(=O)NCCNC(=O)c2ccco2)c1,inactive
3,Cc1cccc2cc(CN(CC(C)C)S(=O)(=O)c3ccccc3)c(=O)[nH]c12,"inconclusive [inhibitor, single point]"
4,O=C(CC(=O)N/N=C\c1c(Cl)cccc1Cl)NCc1ccccc1,inactive
5,COc1cccc(OCCN2CCN(c3ncnc4c3cnn4-c3ccccc3)CC2)c1,active: 11.7 µM
6,COC(=O)[C@@H]1CC[C@H](C)[C@@H](c2ccc(C)cc2)N1C(=O)c1ccc(/C=N/OC[C@@H](O)COCc2ccco2)cc1,active: 6.57 µM
7,COc1ccc(NC(=O)c2ccc(-n3cncn3)c([N+](=O)[O-])c2)cc1,"inconclusive [inhibitor, partial curve, poor fit]"
8,CCOc1ccccc1C(=O)NC1CC2CCCC(C1)N2C1CC1 (centres undefined),"inconclusive [inhibitor, partial curve]"
9,CCOC(=O)C1=C(CN2CCN(C(=O)c3ccco3)CC2)NC(=O)NC1c1ccc(Cl)cc1 (centres undefined),active: 3.7 µM
10,COc1ccc(N(C(=O)CNC(=O)c2ccco2)C(C(=O)NCC2CCCO2)c2ccccc2)cc1OC (centres undefined),inactive
11,CC(Sc1ccc(Cl)cc1)C(=O)NCC(c1ccco1)N1CCCCC1 (centres undefined),"inconclusive [inhibitor, partial curve]"
12,Cc1ccc(-c2nn(-c3ccccc3)cc2C(=O)N2CCOCC2)cc1C,"inconclusive [inhibitor, single point]"
13,CCN(CC(=O)Nc1ccc2c(c1)OC(F)(F)O2)Cc1nc2ccccc2c(=O)[nH]1,"inconclusive [inhibitor, partial curve, poor fit]"
14,COc1cc(/C=N/NC(=O)c2ccc(NC(=O)C3CCCCC3)cc2)ccc1O,"inconclusive [inhibitor, single point]"
15,CC(Sc1ccccc1)C(=O)NN=C1CCN(C)CC1 (centres undefined),inactive
16,Cc1ccc(Cn2nnc3c(=O)[nH]c(C(=O)NCc4ccco4)nc32)cc1,inactive
17,C/C(=N\NC(=O)COc1ccc(C)cc1C(C)C)c1ccc(-n2ccnc2)cc1,"inconclusive [inhibitor, partial curve]"
18,Cc1cc(C(=O)CN2C(=O)C(=O)N(C3CCCC3)C2=O)c(C)n1-c1ccc(F)cc1,"inconclusive [inhibitor, single point]"
19,CC1=C(C(=O)OCc2ccccc2)C(/C=C/c2ccccc2)N2C(=O)CCSC2=N1 (centres undefined),"inconclusive [inhibitor, single point]"
20,COc1cccc(-c2ccc(NC(=O)C3CCCN(CCCn4nc(C)cc4C)C3)cc2)c1 (centres undefined),"inconclusive [inhibitor, single point]"
21,CCOC(=O)/C(O)=C/c1ncc(C(F)(F)F)cc1Cl,inactive
22,COc1ccc(N2CCN(C(c3ccccc3OC)c3nnnn3Cc3ccco3)CC2)cc1 (centres undefined),"inconclusive [inhibitor, partial curve]"
23,COc1ccc(-c2nn(-c3ccccc3)cc2/C=C2/SC(=S)N(CCCC(=O)O)C2=O)c(C)c1,"inconclusive [inhibitor, single point]"

row,Compound,Potency
1,CCSc1nnc(NC(=O)c2cc(C)on2)s1,"inconclusive [inhibitor, partial curve, poor fit]"
2,OCC1(Cc2ccccc2)CCN(Cc2ccc(-c3ccco3)cc2)CC1,"inconclusive [inhibitor, single point]"
3,Cc1cc(NS(C)(=O)=O)c(=O)n(Cc2cccc(F)c2)c1,inactive
4,CC/C(=N\NC(=O)C1CCCC1)c1cccc(Br)c1,"inconclusive [inhibitor, single point]"
5,O=C(Nc1ccccc1-c1ccccc1)c1ccc(Cl)c([N+](=O)[O-])c1,"inconclusive [inhibitor, partial curve, poor fit]"
6,COc1ccccc1Oc1ccc(N2CC(C(=O)OCC(=O)c3ccc(F)cc3)CC2=O)cc1 (centres undefined),inactive
7,COc1ccc(CCN(Cc2cccs2)S(=O)(=O)c2ccc(-n3cnnn3)cc2)cc1OC,"inconclusive [inhibitor, single point]"
8,CC(=O)N1CCCc2ccc(NS(=O)(=O)c3ccccc3)cc21,inactive
9,Cc1[nH]c2ccccc2c1C(=O)C(=O)N1CCN(C)CC1,inactive
10,COC(=O)c1ccc(Cn2cnc3c(cnn3-c3ccc(F)cc3)c2=O)o1,inactive
11,COc1cccc(/C=c2/s/c(=C(\C#N)C(=O)N3CCOCC3)n(-c3ccccc3)c2=O)c1,"inconclusive [inhibitor, full curve, poor fit]"
12,CC(=O)NC(=S)Nc1ccc(NC(=O)c2cccnc2Cl)cc1,"inconclusive [inhibitor, single point]"
13,COc1ccc(NC(=O)CSCC(=O)Nc2cc(Cl)ccc2N2CCOCC2)cc1,"inconclusive [inhibitor, single point]"
14,CCOc1ccc(S(=O)(=O)N2CCCCC2)cc1NC(=O)CSCc1c(C)noc1C,"inconclusive [inhibitor, partial curve, poor fit]"
15,O=C(CC1C(=O)NCCN1Cc1ccoc1)NCc1cccc(OC(F)(F)F)c1 (centres undefined),inactive
16,CCCCn1c(N)c(N(CC(C)C)C(=O)CC2OC(=O)c3ccccc32)c(=O)[nH]c1=O (centres undefined),"inconclusive [inhibitor, partial curve, poor fit]"
17,Cc1ccc(C2CC(=O)Nc3cc4c(cc32)OCCO4)s1 (centres undefined),"inconclusive [inhibitor, single point]"
18,COc1ccccc1N1CCN(S(=O)(=O)c2cc3[nH]c(=O)c(=O)[nH]c3cc2C)CC1,active: 9.28 µM
19,Cc1nccc2c1[nH]c1ccc(Br)cc12,"inconclusive [inhibitor, single point]"
20,CCOc1cc(-c2cc(-c3ccc(NC(C)=O)cc3)nc(N)c2C#N)ccc1O,"inconclusive [inhibitor, partial curve, poor fit]"
21,C=CCCC(=O)N1CCC(n2nccc2NC(=O)CCCc2ccccc2)CC1,inactive
22,Clc1ccc(NNc2ccnc3cc(Cl)ccc23)cc1,active: 1.65 µM
23,COc1ccc(CCNC(=O)C23CN(Cc4ccccc4)CC2C(c2cccc([N+](=O)[O-])c2)=NO3)cc1 (centres undefined),"inconclusive [inhibitor, single point]"

row,Compound,Potency
1,CN(Cc1nc(-c2ccc(Cl)cc2)no1)C(=O)c1ccc2c(c1)OCO2,inactive
2,OC(CSc1c(Cl)cccc1Cl)CN1CCN(c2ccccc2F)CC1 (centres undefined),"inconclusive [inhibitor, single point]"
3,CN1CCC(OC(=O)c2ccc(Cl)cc2Cl)CC1,inactive
4,CCCn1c(=O)[nH]c(=O)c2c1nc(-c1cc([N+](=O)[O-])ccc1Cl)n2CCOC,"inconclusive [inhibitor, partial curve, poor fit]"
5,Cc1ccc(Oc2nc(-c3ccccn3)nc3ccccc23)cc1,active: 1.47 µM
6,O=C(CCS(=O)(=O)c1ccccc1)Nc1ccc(Cl)cn1,inactive
7,NC(=O)c1ccccc1-c1noc(-c2ccccc2F)n1,"inconclusive [activator, partial curve]"
8,O=C(Oc1cccc(NC(=O)c2ccccc2Cl)c1)c1ccc([N+](=O)[O-])cc1,inactive
9,O=C(Nc1ccc(OC(F)F)c(Cl)c1)[C@@H]1CCCN1C(=O)c1cccs1,"inconclusive [inhibitor, single point]"
10,O=C(CS(=O)CC(=O)Nc1cccnc1)Nc1ccc(F)cc1 (centres undefined),"inconclusive [inhibitor, partial curve, poor fit]"
11,CCOc1ccc(CNC(=O)CCC(=O)N2CCSc3ccccc32)cc1,inactive
12,C[C@@H]1CC[C@H](O)/C=C/C(=O)O[C@H](C)CC[C@H](O)/C=C/C(=O)O1,"inconclusive [inhibitor, single point]"
13,CN(c1ccccc1)C(c1ccc(F)cc1)c1nnnn1CC1CCCO1 (centres undefined),"inconclusive [inhibitor, single point]"
14,CC(=O)c1cc(C#N)c(SCc2ccncc2)nc1C,inactive
15,CC(Oc1ccc(Cl)cc1)C(=O)Nc1nccs1 (centres undefined),active: 4.15 µM
16,O=C(CCCN1C(=O)NC2(CCCC2)C1=O)Nc1ccc(Cl)c(S(=O)(=O)N2CCOCC2)c1,"inconclusive [inhibitor, partial curve, poor fit]"
17,CC(=O)Oc1cc2oc(=O)c3c(c2cc1Cl)CCC3,"inconclusive [inhibitor, full curve, poor fit]"
18,COc1cccc(Nc2nnc(SCC(=O)N3CC(=O)Nc4ccccc43)s2)c1,"inconclusive [inhibitor, partial curve]"
19,O=C(NN1C(=O)/C(=C/C=C/c2ccccc2)SC1=S)c1ccncc1,inactive
20,O=C(CCC(=O)NNC(=O)COc1ccc(Br)cc1)NCc1ccccc1,inactive
21,C/C(CC(=O)Nc1ccc(Cl)cc1C(F)(F)F)=N\NC(N)=S,inactive
22,COc1ccc(C(=O)C[n+]2ccc3c(c2)nnn3-c2ccccc2)cc1,"inconclusive [inhibitor, partial curve, poor fit]"
23,COc1ccccc1CCN=C(N)NS(=O)(=O)c1ccc(C)c(C)c1,"inconclusive [inhibitor, single point]"
